Measured values as given in PubChem BioAssay AID651820 (National Center for Advancing Translational Sciences (NCATS), 2012).
Hit rate of the full screen: of about 340,000 compounds, about 12,000 (3.5%) were called active. Inconclusive means that the source gave no clear call. Such entries were picked first, then a sample of the others. The call rests on the fitted dose curve; in most records, active means well fitted inhibition curve with a large enough effect; inconclusive means small, poorly fitted or top-dose-only effect, or another doubt; inactive means no such curve, though single readings can be large or run the other way. Potencies of inconclusive entries are left out as doubtful fits.

Assay: qHTS Assay for Inhibitors of Hepatitis C Virus (HCV)
Conditions: Huh7.5.1 HCVcc-Cre (HCVcc is cell-culture hepatitis C virus) infection, luciferase reporter, 44 h; activity change, negative = inhibition: at 41.8 µM (top of the series) unless noted
Summary of the method: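 Infectious HCV cell culture screen: compound-treated cells (1,000/well, pre-plated 4 h) are infected with HCVcc-Cre at roughly 0.5 moi and grown 44 h. Infection is quantified by luciferase signal after 15 min substrate incubation at room temperature.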
On the % scale 0 is the no-effect control and ±100 the full control effect; potency means the concentration at half of the fitted maximal effect; tags describe the fitted curve by direction and shape.

| Compound | Potency | activity change, negative = inhibition |
| --- | --- | --- |
| COc1ccc(NC2=CC(c3ccc(OC)c(OC)c3)N(c3ccc(OC)cc3)C2=O)cc1 (stereo not given) | inconclusive [inhibitor, single point] | – |
| CC1CCCCN1Cc1c[nH]c2ccccc12 (stereo not given) | inconclusive [inhibitor, single point] | – |
| CCOC(=O)c1c(C)[nH]c(C)c1C(=O)COC(=O)/C=C/c1ccc(OC(F)F)cc1 | active: 31.6 µM | – |
| CC(Sc1ccccc1)C(=O)NN=C1CCCCCCC1 (stereo not given) | – | inactive: 19.8% |
| COc1ccc(C(C)NCCC(c2ccc(OC(C)C)cc2)c2ccccc2OC)cc1 (stereo not given) | active: 10 µM | – |
| COc1ccc(OC(C)C(=O)N(C)Cc2nc(-c3cccc(C)c3)no2)cc1 (stereo not given) | inconclusive [inhibitor, partial curve] | – |
| CC(NS(=O)(=O)c1ccc2c(c1)CC(C)N2C(=O)C1CC1)c1ccccc1 (stereo not given) | inconclusive [inhibitor, single point] | – |
| CC(/C=N/n1c(C2CCCCC2)n[nH]c1=S)=C\c1ccccc1 | – | inactive: -2.53% |
| O=C1Nc2cc(C(=O)N3CCC4(CC3)OCCO4)ccc2S/C1=C\c1ccccc1 | inconclusive [inhibitor, single point] | – |
| CCC(=O)O[C@]1(C(=O)CCl)[C@@H](C)C[C@H]2[C@@H]3CCC4=CC(=O)C=C[C@]4(C)[C@@]3(F)[C@@H](O)C[C@@]21C | inactive | – |
| COc1ccc(OC)c(/C=N\Nc2nccs2)c1 | inconclusive [inhibitor, partial curve] | – |
| Cc1oc2ccc(OS(C)(=O)=O)cc2c1C(=O)OC(C)C | inconclusive [inhibitor, single point] | – |
| Cc1nn(C(C)(C)C)c(OC(=O)CC(C)C)c1S(=O)(=O)c1ccccc1 | inconclusive [inhibitor, single point] | – |
| CCCNC(=O)c1ccc(N2CCC3(CC2)CC(c2ccccc2)=NO3)c(NC(=O)c2cccc(OC)c2)c1 | inconclusive [inhibitor, single point] | – |
| NC(=O)c1ccccc1OCc1cccc2ccccc12 | inconclusive [inhibitor, single point] | – |
| CNc1ccc(Br)cc(C(=O)/C=C/c2cccc(OC)c2)c1=O | active: 11.2 µM | – |
| Cc1nc(N)sc1C(=O)N/N=C/c1cccnc1 | – | inactive: 8.82% |
| Cc1cc(Cn2nc(-c3ccccc3)cc2C(=O)NCC2CC2)on1 | inconclusive [inhibitor, single point] | – |
| CCOc1ccc(CNC(=O)C2CCCN(c3nnc(C)c4c(C)n(-c5ccccc5)nc34)C2)cc1 (stereo not given) | – | inactive: -15.1% |
| CC(=O)Nc1ccc(S(=O)(=O)Nc2cccc(NC(=O)C(C)(C)C)c2)cc1 | inconclusive [inhibitor, single point] | – |
| CC(C)(C)NC(=O)C(c1ccc(-c2ccccc2)cc1)N(C[C@H]1CC[C@@H]([C@@H]2CC[C@H](CO)O2)O1)C(=O)c1ccc2ccccc2c1 (stereo not given in full) | inconclusive [inhibitor, single point] | – |
| Cc1ccc(C(NC(=O)c2ccccc2)C(Cl)Cl)cc1 (stereo not given) | inconclusive [inhibitor, single point] | – |
| CCOC(=O)Cc1cc(=O)c2cc(C)ccc2[nH]1 | – | inactive: 18.2% |
| CC1CCc2[nH]c3ccc(C(=O)N(C)CC(=O)Nc4ccccc4Cl)cc3c2C1 (stereo not given) | inconclusive [inhibitor, full curve, poor fit] | – |

| Compound | Potency | activity change, negative = inhibition |
| --- | --- | --- |
| Cc1noc(C)c1S(=O)(=O)N1CCCC(C(=O)c2cccc(OC(C)C)c2)C1 (stereo not given) | – | inactive: -27% |
| O=C(Nc1ccc(Cl)c(S(=O)(=O)N2CCCCC2)c1)c1cccnc1 | active: 14.1 µM | – |
| CCOc1ncccc1C(=O)N1CCN(C(c2ccccc2)c2ccccc2)CC1 | active: 11.2 µM | – |
| COc1ccc(NC(=O)CSc2ccc(-c3ccco3)nn2)cc1 | – | inactive: -1.89% |
| Cc1nc2sc(C(c3ccccc3)N3CC(C)OC(C)C3)c(O)n2n1 (stereo not given) | – | inactive: 19.5% |
| Cc1nn(C)c(C)c1/C=C/C(=O)c1ccc(Cl)cc1Cl | active: 7.94 µM | – |
| CCn1c(COc2ccc(=O)n(-c3ccccc3)n2)nnc1SC | – | inactive: 17.9% |
| O=C(NC1CCCCC1)N1CCN(Cc2ccco2)CC1 | – | inactive: 11.2% |
| O=C(CSC(=S)N1CCCC1)NCC(=O)Nc1ccccc1Br | – | inactive: -12.9% |
| CCOc1ccccc1NC(=O)CCc1c(C)nn(-c2ccc(N3CCCCC3)nn2)c1C | inconclusive [inhibitor, partial curve] | – |
| CC(=O)Nc1ccc(-c2csc(NC(=O)Cc3ccccc3F)n2)cc1 | inconclusive [inhibitor, single point] | – |
| Cc1ccc(C(=O)NCC(c2ccc(F)cc2)N2CCOCC2)s1 (stereo not given) | – | inactive: 10.5% |
| COC(=O)C1=C(c2ccc(F)cc2OCc2ccccc2)C[C@@H]2CC[C@H]1N2C(=O)NCCCOC(C)C | inconclusive [inhibitor, single point] | – |
| Cc1cccc(OCCNc2cc(N3CCN(C)CC3)ccc2[N+](=O)[O-])c1 | inconclusive [inhibitor, partial curve] | – |
| COc1ccccc1-c1noc(-c2cc(OC)c(OC)c(OC)c2)n1 | inconclusive [inhibitor, full curve] | – |
| COc1ccc(-c2csc(NC(=O)CSCc3c(C)noc3C)n2)c(OC)c1 | inconclusive [inhibitor, single point] | – |
| O=C(COC(=O)c1ccccc1O)NNC(=O)c1ccc(Br)cc1 | inconclusive [inhibitor, single point] | – |
| COc1ccc(OC)c(CN2C(=O)c3ccccc3C2C(=O)NCC2CCCO2)c1 (stereo not given) | – | inactive: 23.4% |
| CC(=O)Nc1cccc(NC(=O)CSc2nccn2Cc2ccc(F)cc2)c1 | inconclusive [inhibitor, single point] | – |
| O=C(Nc1ccc(F)cc1)c1ccc2c(=O)n3c(nc2c1)CCCCC3 | inconclusive [inhibitor, single point] | – |
| O=C(CN(Cc1ccccc1)S(=O)(=O)c1ccc(F)cc1)NCCC1=CCCCC1 | inconclusive [inhibitor, single point] | – |
| Cc1nc(NC(=O)c2ccccc2)sc1-c1csc(Nc2ccc(C(=O)O)cc2)n1 | inconclusive [inhibitor, full curve, poor fit] | – |
| CCCN(C(=O)c1ccco1)c1nnc(-c2cccc(C)c2)s1 | inconclusive [inhibitor, single point] | – |
| CCOC(=O)N1CCC(NC(=O)CCc2nc(-c3ccc(C)cc3)no2)CC1 | inconclusive [inhibitor, single point] | – |

| Compound | Potency | activity change, negative = inhibition |
| --- | --- | --- |
| O=C(c1cc2ccccc2[nH]1)N(Cc1cccnc1)CC1CCCN(C2CCCCC2)C1 (stereo not given) | inconclusive [inhibitor, single point] | – |
| O=C(N1CCN(c2ccccn2)CC1)N1c2ccccc2Sc2ccccc21 | inconclusive [inhibitor, full curve, poor fit] | – |
| COc1ccc(CNC(=O)C2CCCN(Cc3nc(-c4cccc(C)c4)oc3C)C2)cc1 (stereo not given) | inconclusive [inhibitor, partial curve] | – |
| COc1c(CC=C(C)C)cc(C2CC(=O)c3c(O)cc(O)cc3O2)c(CC=C(C)C)c1O (stereo not given) | inconclusive [inhibitor, single point] | – |
| Cc1ccc(NC(=O)Cc2nn(C)c(=O)c3ccccc23)cc1F | inconclusive [inhibitor, partial curve] | – |
| C=CCCc1ccc(C#N)c(SCc2c(C(=O)OCC)c3cc(OC(C)=O)c(Br)cc3n2C)n1 | inconclusive [inhibitor, full curve] | – |
| ClC(Br)=C(n1cnc2ccccc21)n1cnc2ccccc21 | inconclusive [inhibitor, single point] | – |
| CC(C)(C)NC(=O)C(c1ccc(Cl)cc1)N(Cc1ccco1)C(=O)CCl (stereo not given) | – | inactive: 2.1% |
| O=C1CSC(c2ccncc2)N1Cc1ccc(F)cc1 (stereo not given) | – | inactive: 16.8% |
| CCCC(C)NC(=O)c1cc(Cl)ccc1OC (stereo not given) | inconclusive [inhibitor, single point] | – |
| CCOC(=O)c1c(C)n(-c2ccc(C)cc2)c2ccc(OCC(O)CNCC3CCCO3)cc12 (stereo not given) | inconclusive [inhibitor, partial curve] | – |
| COc1cccc(/C=N/Nc2snc(SC)c2C#N)c1O | inconclusive [inhibitor, single point] | – |
| Cc1nc(Nc2cccc(F)c2)c2oc3ccccc3c2n1 | inconclusive [inhibitor, single point] | – |
| CC(C)(C)c1ccc(/C=C(\c2nc3ccccc3[nH]2)S(=O)(=O)c2ccccc2)cc1 | active: 11.2 µM | – |
| CC(C)CCN(C(=S)Nc1cccc(F)c1)C(C)c1cccs1 (stereo not given) | inconclusive [inhibitor, single point] | – |
| CC(NC(=O)c1cccs1)c1ccc(Cl)cc1 (stereo not given) | – | inactive: 11.9% |
| CCC(CC)NC(=O)c1cc(OC)c(OC)cc1[N+](=O)[O-] | – | inactive: 24.1% |
| CN(C)NC(=O)c1ccsc1NC(=O)c1ccc(S(=O)(=O)N2CCCC2)cc1 | – | inactive: 21.8% |
| O=C1CN(C(=O)COC(=O)c2ccccc2NCc2ccco2)c2ccccc2N1 | inconclusive [inhibitor, full curve] | – |
| O=C1OCCN1/N=C/c1ccc([N+](=O)[O-])o1 | inconclusive [inhibitor, single point] | – |
| COCCNC(=O)CSc1nc2ccccc2c(=O)n1CCC(=O)NCCc1ccc(OC)c(OC)c1 | inconclusive [inhibitor, single point] | – |
| Cc1cccc2cc(CN(Cc3cccs3)Cc3nnnn3Cc3ccccc3)c(=O)[nH]c12 | active: 10 µM | – |
